This is an account of results in publication PMC9911399, “Two distinct binding modes provide the RNA-binding protein RbFox with extraordinary sequence specificity”.

Sequences and labels used below:
T1: RBFOX1 RRM (Homo sapiens, UniProt Q9NWB1 109-208)
T1 sequence: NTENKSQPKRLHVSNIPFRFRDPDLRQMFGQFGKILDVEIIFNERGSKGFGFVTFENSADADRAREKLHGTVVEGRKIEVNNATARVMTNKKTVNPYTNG

B1: GGGUUCC (DNA:RNA)
RNA: GGGAGACCGGAAUUCAGAUUGUCCGGGUUCCUUAAAUCCCGUCGUAGCCACCA
DNA 1: CAATCTGAATTCCGGTCTCCC
DNA 2: TGGTGGCTACGACGGGATT
B2: GAUCCGA (DNA:RNA)
RNA: B1 RNA with G26A, G27U, U28C, U29C, C30G, C31A
DNA 1: CAATCTGAATTCCGGTCTCCC
DNA 2: TGGTGGCTACGACGGGATT
B3: CAUCGGG (DNA:RNA)
RNA: GGGAGACCGGAAUUCAGAUUGUCCCAUCGGGUUAAAUCCCGUCGUAGCCACCA
DNA 1: CAATCTGAATTCCGGTCTCCC
DNA 2: TGGTGGCTACGACGGGATT
B4: UGCAGCG (DNA:RNA)
RNA: B3 RNA with C25U, A26G, U27C, C28A, G30C
DNA 1: CAATCTGAATTCCGGTCTCCC
DNA 2: TGGTGGCTACGACGGGATT
B5: CAUUCGU (DNA:RNA)
RNA: B3 RNA with C28U, G29C, G31U
DNA 1: CAATCTGAATTCCGGTCTCCC
DNA 2: TGGTGGCTACGACGGGATT
B6: GAAUCUC (DNA:RNA)
RNA: B1 RNA with G26A, G27A, U29C, C30U
DNA 1: CAATCTGAATTCCGGTCTCCC
DNA 2: TGGTGGCTACGACGGGATT
B7: GUCGGGG (DNA:RNA)
RNA: B3 RNA with C25G, A26U, U27C, C28G
DNA 1: CAATCTGAATTCCGGTCTCCC
DNA 2: TGGTGGCTACGACGGGATT
B8: CAGUUCC (DNA:RNA)
RNA: B1 RNA with G25C, G26A
DNA 1: CAATCTGAATTCCGGTCTCCC
DNA 2: TGGTGGCTACGACGGGATT
B9: GCUUACC (DNA:RNA)
RNA: B1 RNA with G26C, G27U, U29A
DNA 1: CAATCTGAATTCCGGTCTCCC
DNA 2: TGGTGGCTACGACGGGATT
B10: GCGUCCC (DNA:RNA)
RNA: B1 RNA with G26C, U29C
DNA 1: CAATCTGAATTCCGGTCTCCC
DNA 2: TGGTGGCTACGACGGGATT
B11: UUUACCU (DNA:RNA)
RNA: B3 RNA with C25U, A26U, C28A, G29C, G30C, G31U
DNA 1: CAATCTGAATTCCGGTCTCCC
DNA 2: TGGTGGCTACGACGGGATT
B12: AAUUGGA (DNA:RNA)
RNA: B3 RNA with C25A, C28U, G31A
DNA 1: CAATCTGAATTCCGGTCTCCC
DNA 2: TGGTGGCTACGACGGGATT
B13: UUUUAAC (DNA:RNA)
RNA: B1 RNA with G25U, G26U, G27U, U29A, C30A
DNA 1: CAATCTGAATTCCGGTCTCCC
DNA 2: TGGTGGCTACGACGGGATT
B14: UAGAAAC (DNA:RNA)
RNA: B1 RNA with G25U, G26A, U28A, U29A, C30A
DNA 1: CAATCTGAATTCCGGTCTCCC
DNA 2: TGGTGGCTACGACGGGATT
B15: CACACUC (DNA:RNA)
RNA: B3 RNA with U27C, C28A, G29C, G30U, G31C
DNA 1: CAATCTGAATTCCGGTCTCCC
DNA 2: TGGTGGCTACGACGGGATT
B16: UGCGUAC (DNA:RNA)
RNA: B1 RNA with G25U, G27C, U28G, C30A
DNA 1: CAATCTGAATTCCGGTCTCCC
DNA 2: TGGTGGCTACGACGGGATT
B17: UACGUCA (DNA:RNA)
RNA: B1 RNA with G25U, G26A, G27C, U28G, C31A
DNA 1: CAATCTGAATTCCGGTCTCCC
DNA 2: TGGTGGCTACGACGGGATT
B18: GCUUUGG (DNA:RNA)
RNA: B3 RNA with C25G, A26C, C28U, G29U
DNA 1: CAATCTGAATTCCGGTCTCCC
DNA 2: TGGTGGCTACGACGGGATT
B19: GUGAGCA (DNA:RNA)
RNA: B1 RNA with G26U, U28A, U29G, C31A
DNA 1: CAATCTGAATTCCGGTCTCCC
DNA 2: TGGTGGCTACGACGGGATT
B20: UUACAAC (DNA:RNA)
RNA: B3 RNA with C25U, A26U, U27A, G29A, G30A, G31C
DNA 1: CAATCTGAATTCCGGTCTCCC
DNA 2: TGGTGGCTACGACGGGATT

Where a chain is given by its changes, count along the chain named. Some of the results follow.

The target in this test is T1, RBFOX1 RRM. Briefly: EMSA; HiTS-Eq, 1 nM pool, 10 min; buffer printed only for the single-RNA assays: 10 mM Tris pH 7.5, 150 mM NaCl, 3.4 mM EDTA, 0.001% NP-40, 30 C. To be noted: tags: His6 N-terminal (pET28a); label: 5' 32P. An outline of the steps:
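These values rest on relative association constants, computed from read-count changes of each RNA species versus the control reaction and normalised to the cognate motif. Reads came from free RNA recovered by 8% native PAGE after purified RbFox RRM (wild type or mutant) at increasing concentrations was equilibrated for 10 min in 50 µL with 1 nM of a 5′-radiolabelled pool with 7 randomized nucleotides and DNA-annealed flanks.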
On the technique in general: Mobility shift assays separate free from complexed probe on a gel.
B1: the binding signal was 0.0348 KA relative to UGCAUGU.

As for B2, the binding signal is 0.0107 KA relative to UGCAUGU.

For B3, the binding signal is 0.00521 KA relative to UGCAUGU.

Turning to B4, the binding signal was 0.0211 KA relative to UGCAUGU.

As for B5, the binding signal was 0.00851 KA relative to UGCAUGU.

In the case of B6, the binding signal was 0.0111 KA relative to UGCAUGU.

For the molecule B7, the binding signal is 0.0181 KA relative to UGCAUGU.

With B8, the binding signal is 0.00472 KA relative to UGCAUGU.

For B9, the binding signal is 0.00633 KA relative to UGCAUGU.

As for B10, the binding signal was 0.00975 KA relative to UGCAUGU.

For B11, the binding signal was 0.00424 KA relative to UGCAUGU.

Take B12: the binding signal was 0.00265 KA relative to UGCAUGU.

Turning to B13, the binding signal is 0.00589 KA relative to UGCAUGU.

Regarding B14, the binding signal is 0.0111 KA relative to UGCAUGU.

For the molecule B15, the binding signal was 0.00343 KA relative to UGCAUGU.

In the case of B16, the binding signal is 0.0181 KA relative to UGCAUGU.

Regarding B17, the binding signal is 0.00559 KA relative to UGCAUGU.

B18: the binding signal was 0.0206 KA relative to UGCAUGU.

For the molecule B19, the binding signal is 0.0183 KA relative to UGCAUGU.

Consider B20, for which the binding signal is 0.00317 KA relative to UGCAUGU.
